± gives the standard deviation of the averaged measurements. Whole data set: some 33,000 sequences, median “E-score (dimensionless, -0.5 to 0.5)” near -0.049, cut for the highest 2% near 0.37. Some of the results follow.
System: T1, PmTbr T-box DNA-binding domain (GST fusion)
T1 sequence: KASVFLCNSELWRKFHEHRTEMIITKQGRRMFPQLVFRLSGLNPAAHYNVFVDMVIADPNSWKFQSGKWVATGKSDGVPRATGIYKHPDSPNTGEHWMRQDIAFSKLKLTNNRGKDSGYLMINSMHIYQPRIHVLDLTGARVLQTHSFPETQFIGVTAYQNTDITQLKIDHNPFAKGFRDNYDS
Experiment: PBM E-score of 8-mer (E-score (dimensionless, -0.5 to 0.5)); Tbr is Tbrain of the sea star Patiria miniata (Pm) or the sea urchin Strongylocentrotus purpuratus (Sp); higher = stronger binding preference; most listed sequences are background and not binding sites
Conditions: the construct has about 5 more residues each side
Procedure, shortened: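 Universal Agilent oligonucleotide arrays, made double-stranded by primer extension, were incubated with 200 nM GST-fused Tbr T-box DNA-binding domain in PBS (pH 7.5). The protein was expressed in BL21 E. coli at 20 °C and purified by glutathione affinity chromatography. After scanning and quantification, the Universal PBM Analysis Suite assigned an enrichment E-score to each ungapped 8-mer, averaged over duplicate arrays.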

Row | Sequence | PBM E-score of 8-mer
1 | CCGGTCCA | -0.104 ± 0.064
2 | AGCTTAGG | -0.133 ± 0.053
3 | GACAGTTA | 0.187 ± 0.022
4 | AGATCACG | -0.037 ± 0.03
5 | AGAACTGC | 0.0138 ± 0.07
6 | TCCGCGAA | 0.264 ± 0.014
7 | TCACTAAA | 0.147 ± 0.033
8 | CGACTAAA | -0.106 ± 0.065
9 | AGCACAGG | -0.235 ± 0.023
10 | ATCACGAA | -0.0885 ± 0.085
11 | AAATAAAG | -0.173 ± 0.077
12 | ACCTCGAT | 0.206 ± 0.017
13 | AAGACAGG | -0.0738 ± 0.047
14 | CTTTATGA | -0.00777 ± 0.018
15 | GAGAGTCC | -0.178 ± 0.043
16 | AAAAGCGG | -0.261 ± 0.1
17 | AATTGTAG | -0.224 ± 0.13
18 | CCGCGAAG | 0.282 ± 0.029
19 | CGACGCCA | 0.1 ± 0.034
20 | AGTGTCCA | -0.00597 ± 0.011
21 | AAACGGAT | -0.124 ± 0.045
22 | GCCGAATA | -0.0806 ± 0.036
23 | GCACTTAA | 0.254 ± 0.025
24 | ACCTGACT | -0.0124 ± 0.032
25 | CCGTCTAC | -0.179 ± 0.053

Row | Sequence | PBM E-score of 8-mer
26 | CTTTCAAA | -0.147 ± 0.036
27 | ATTGCTCG | -0.0286 ± 0.034
28 | CCGAGGCA | -0.133 ± 0.049
29 | CACGCCTC | 0.361 ± 0.0085
30 | ACGCAGTC | -0.148 ± 0.059
31 | GGCTACGA | -0.103 ± 0.078
32 | AGGACCCA | -0.152 ± 0.054
33 | CCATGCGC | -0.121 ± 0.11
34 | AATTGGAC | -0.191 ± 0.0088
35 | AATGTACA | -0.164 ± 0.0098
36 | CCTAGTAA | 0.0527 ± 0.056
37 | CATCATCC | -0.208 ± 0.038
38 | GGTGCACC | -0.189 ± 0.13
39 | CAGAATCA | -0.0423 ± 0.097
40 | AACTATAG | -0.14 ± 0.093
41 | CTCGACCA | -0.0639 ± 0.019
42 | GTTCTTAA | -0.204 ± 0.026
43 | CTTTCTGC | 0.0111 ± 0.011
44 | CTTAATCC | -0.106 ± 0.034
45 | CATCGGTA | -0.0771 ± 0.098
46 | GCAGTCCC | -0.103 ± 0.08
47 | GGGGTGAA | 0.0941 ± 0.04
48 | ATTGGTGG | 0.155 ± 0.063
49 | ACGTACAT | 0.0904 ± 0.023
50 | GTCATAGA | -0.118 ± 0.0043

Row | Sequence | PBM E-score of 8-mer
51 | CCGTGAAG | 0.153 ± 0.011
52 | CGCTCAAG | -0.196 ± 0.068
53 | TCCCAACA | 0.187 ± 0.057
54 | CCTCAACA | -0.0516 ± 0.063
55 | ACCCAGTC | -0.234 ± 0.046
56 | CGAAGCAA | 0.0452 ± 0.014
57 | CAGTTCCA | -0.091 ± 0.0048
58 | CACACTGC | 0.168 ± 0.039
59 | AGTCCTAT | -0.257 ± 0.058
60 | CGAACCAA | -0.0599 ± 0.095
61 | AAAGTTCG | -0.0669 ± 0.016
62 | GGACTTAA | -0.202 ± 0.013
63 | CCCGCGAG | 0.243 ± 0.058
64 | AAAATCAC | 0.28 ± 0.04
65 | AAGGTGAA | 0.185 ± 0.013
66 | AGTCAAGA | -0.165 ± 0.048
67 | GTAGAAAC | -0.211 ± 0.011
68 | ATTTGCTA | 0.224 ± 0.081
69 | AAAATTTT | 0.16 ± 0.14
70 | AACCGTAG | -0.116 ± 0.056
71 | CGAAAAAA | 0.00041 ± 0.062
72 | CTTACCTC | 0.044 ± 0.013
73 | ACGCTGCG | 0.0804 ± 0.011
74 | ATCCCAGC | -0.157 ± 0.078
75 | TCAGAGGA | 0.0312 ± 0.088

Row | Sequence | PBM E-score of 8-mer
76 | CGCTGCAG | -0.0899 ± 0.024
77 | AAGTAGTC | -0.235 ± 0.039
78 | CAAGGCCG | -0.0395 ± 0.021
79 | GATGTTAC | 0.0974 ± 0.051
80 | AGCCACTC | -0.255 ± 0.025
81 | GGCATAGA | -0.227 ± 0.0031
82 | CGTCCCTC | -0.219 ± 0.054
83 | CCGTTTCC | -0.0135 ± 0.022
84 | AAGTGGCT | 0.0687 ± 0.0083
85 | GCAGACTA | -0.14 ± 0.053
86 | GGGATGGA | -0.276 ± 0.027
87 | TAACGTGA | 0.173 ± 0.041
88 | CCGAAAGC | -0.0489 ± 0.072
89 | CATGTTCG | -0.0838 ± 0.11
90 | GCATATCA | -0.00379 ± 0.037
91 | GCCTTTCC | -0.0329 ± 0.075
92 | GGAAACCC | -0.112 ± 0.033
93 | GCGTTAAA | 0.3 ± 0.0074
94 | AAACCAAT | -0.223 ± 0.043
95 | CAGCTAAA | -0.0925 ± 0.0072
96 | CAACATGA | 0.0353 ± 0.044
97 | AGCAGTAT | -0.068 ± 0.0045
98 | AACGTATT | 0.0326 ± 0.037
99 | GGGGAGAC | -0.0476 ± 0.015
100 | CTTCACGC | 0.356 ± 0.04

Row | Sequence | PBM E-score of 8-mer
101 | ATCCACTA | -0.27 ± 0.044
102 | CTCCCGAA | -0.251 ± 0.045
103 | CACAGTGC | 0.0691 ± 0.06
104 | AACTCAGA | -0.0319 ± 0.013
105 | AAAATGCA | -0.0355 ± 0.00049
106 | CCTTTCCG | -0.156 ± 0.035
107 | AACGTGAT | 0.153 ± 0.12
108 | CCGATTGA | -0.135 ± 0.075
109 | CCATGGCG | -0.319 ± 0.066
110 | CCAAAATC | 0.0433 ± 0.084
111 | AAATTTTA | 0.052 ± 0.033
112 | GCGCCACA | 0.2 ± 0.0055
113 | AGACGCCC | -0.196 ± 0.04
114 | ATGTGCCA | 0.375 ± 0.0048
115 | AATTACAG | -0.269 ± 0.055
116 | CCTATCCC | 0.0225 ± 0.07
117 | CTTAAAGC | -0.251 ± 0.07
118 | CCACTGGA | -0.214 ± 0.023
119 | ATCCTGAG | -0.118 ± 0.0029
120 | TAAAGGGA | -0.131 ± 0.021
121 | AGATACGG | -0.0614 ± 0.04
122 | AAGTCCGA | -0.0578 ± 0.015
123 | GATATAGC | 0.0855 ± 0.025
124 | CAATCGAA | -0.184 ± 0.0077
125 | CAAGCCCA | -0.185 ± 0.1

Row | Sequence | PBM E-score of 8-mer
126 | TAGAGGCA | -0.155 ± 0.057
127 | GTTTCTCA | 0.225 ± 0.061
128 | AACTGGTG | 0.164 ± 0.041
129 | AAGCTGGA | 0.0394 ± 0.035
130 | CACCATCA | 0.224 ± 0.014
131 | ATCCAATG | -0.144 ± 0.029
132 | CTCATGGA | -0.25 ± 0.087
133 | GGGATGTA | -0.0878 ± 0.0052
134 | AAGAGACC | -0.2107 ± 0.0016
135 | GGGGAAAC | -0.21 ± 0.03
136 | GTATTGAC | -0.00293 ± 0.055
137 | ACGACCGA | -0.05 ± 0.078
138 | GACACTCC | 0.336 ± 0.029
139 | CCAGGAGC | -0.0936 ± 0.022
140 | AAGAGCCA | -0.141 ± 0.043
141 | GACACATC | 0.372 ± 0.0069
142 | CCTTTTAA | -0.0121 ± 0.037
143 | CTGCGATA | 0.169 ± 0.046
144 | CAAGCCGC | 0.0278 ± 0.004
145 | ATTGCATG | -0.2595 ± 0.0022
146 | GCTTTGTA | -0.27 ± 0.058
147 | CCCTGCCC | -0.141 ± 0.066
148 | ACTTTGAG | 0.207 ± 0.011
149 | AGTAAATG | -0.17 ± 0.012
150 | AACGATCC | -0.103 ± 0.02

Row | Sequence | PBM E-score of 8-mer
151 | ACGGTACA | -0.149 ± 0.085
152 | CAGTCCTC | -0.118 ± 0.032
153 | ATCCCGTC | -0.18 ± 0.067
154 | AATGGTCG | -0.249 ± 0.14
155 | AAGGGGGT | 0.113 ± 0.0083
156 | TCATGAGA | -0.129 ± 0.02
157 | CAAAGGAG | -0.205 ± 0.055
158 | CATGACGA | -0.151 ± 0.0077
159 | ATAAAGAG | -0.0745 ± 0.02
160 | AAACGTGT | 0.366 ± 0.013
161 | GACGGCCA | 0.00629 ± 0.033
162 | GCGCCGTA | 0.126 ± 0.099
163 | CACTGATG | 0.122 ± 0.0034
164 | ATAAGTCA | -0.0907 ± 0.0094
165 | ACTTATAA | 0.0259 ± 0.035
166 | TCTGAGAA | -0.135 ± 0.0068
167 | CAAGCCCG | -0.148 ± 0.026
168 | ATCGCGAG | 0.249 ± 0.0038
169 | AGTAGCAG | -0.0497 ± 0.024
170 | GAAGTTAC | -0.0296 ± 0.068
171 | CCAATACA | -0.093 ± 0.055
172 | GATTGTAC | 0.0159 ± 0.031
